Our source for the binding signal (RPM ratio (pull-down/input)) values is article PMC12820563.

This is one part of the list. The list includes weakly bound sequences.

This experiment addresses T1, MBP-FoxP3dN (UniProt Q99JB6).
T1 sequence: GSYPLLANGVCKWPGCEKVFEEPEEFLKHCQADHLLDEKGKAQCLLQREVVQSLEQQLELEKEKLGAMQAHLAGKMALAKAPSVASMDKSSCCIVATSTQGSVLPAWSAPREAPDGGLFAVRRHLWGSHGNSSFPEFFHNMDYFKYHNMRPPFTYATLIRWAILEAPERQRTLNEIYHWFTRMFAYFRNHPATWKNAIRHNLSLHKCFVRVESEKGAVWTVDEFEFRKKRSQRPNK
The experiment in a line: PD-seq (MBP pull-down with sequencing). The following applies: 20 mM Tris-HCl pH 7.5, 100 mM NaCl, 1.5 mM MgCl2, 0.4 uM protein, 0.1 uM dsDNA library, 30 min, room temperature, amylose pull-down; high values mean tight binding; double strand, one strand shown.
As for “GATGATTGTTCTCCCAGCTGATGAATTTGAGCAGTCGAGTAAACAAATTTTCCTAATCTTTCTGTTCAAGCGCCATCTAC”, the binding signal (RPM ratio (pull-down/input)) amounted to 0.341.
For “GATGATTGTTCTCCCAGCTGATGAATTGTAACTTTCGAGTAAACAAATTTTCCTAATCTTTCTGTTCAAGCGCCATCTAC”, the binding signal (RPM ratio (pull-down/input)) came out at 0.724.
On to “GATGATTGTTCTCCCAGCTGATGAATTCACCCGGTCGAGTAAACAAATTTTCCTAATCTTTCTGTTCAAGCGCCATCTAC”, for which the binding signal (RPM ratio (pull-down/input)) amounted to 0.193.
Regarding “GATGATTGTTCTCCCAGCTGATGAATTTAGTTAGTCGAGTAAACAAATTTTCCTAATCTTTCTGTTCAAGCGCCATCTAC”, the binding signal (RPM ratio (pull-down/input)) turned out to be 2.54.
Then “GATGATTGTTCTCCCAGCTGATGAATTATCCTGGTCGAGTAAACAAATTTTCCTAATCTTTCTGTTCAAGCGCCATCTAC”, with 0.181; and “GATGATTGTTCTCCCAGCTGATGAATTGTCATGGTCGAGTAAACAAATTTTCCTAATCTTTCTGTTCAAGCGCCATCTAC”, with 0.55; and “GATGATTGTTCTCCCAGCTGATGAATTAAGATGGTCGAGTAAACAAATTTTCCTAATCTTTCTGTTCAAGCGCCATCTAC”, with 0.453.
To “GATGATTGTTCTCCCAGCTGATGAATTGGTGCAGTCGAGTAAACAAATTTTCCTAATCTTTCTGTTCAAGCGCCATCTAC” belongs 0.786; to “GATGATTGTTCTCCCAGCTGATGAATTTCGCGTCTCGAGTAAACAAATTTTCCTAATCTTTCTGTTCAAGCGCCATCTAC”, 4.04; to “GATGATTGTTCTCCCAGCTGATGAATTGCTGTCGTCGAGTAAACAAATTTTCCTAATCTTTCTGTTCAAGCGCCATCTAC”, 0.942.
With “GATGATTGTTCTCCCAGCTGATGAATTGCAACGTTCGAGTAAACAAATTTTCCTAATCTTTCTGTTCAAGCGCCATCTAC”, the binding signal (RPM ratio (pull-down/input)) worked out at 1.66.
To “GATGATTGTTCTCCCAGCTGATGAATTATGTCACTCGAGTAAACAAATTTTCCTAATCTTTCTGTTCAAGCGCCATCTAC” belongs 4.21.
Then “GATGATTGTTCTCCCAGCTGATGAATTAGCCCCCTCGAGTAAACAAATTTTCCTAATCTTTCTGTTCAAGCGCCATCTAC”, with 0.322; and “GATGATTGTTCTCCCAGCTGATGAATTGCGCAGCTCGAGTAAACAAATTTTCCTAATCTTTCTGTTCAAGCGCCATCTAC”, with 2.42.
Then “GATGATTGTTCTCCCAGCTGATGAATTCTAGGGTTCGAGTAAACAAATTTTCCTAATCTTTCTGTTCAAGCGCCATCTAC”, with 0.387; and “GATGATTGTTCTCCCAGCTGATGAATTGGGGTCTTCGAGTAAACAAATTTTCCTAATCTTTCTGTTCAAGCGCCATCTAC”, with 0.528.
For the sequence “GATGATTGTTCTCCCAGCTGATGAATTGCAACCTTCGAGTAAACAAATTTTCCTAATCTTTCTGTTCAAGCGCCATCTAC”, the binding signal (RPM ratio (pull-down/input)) was 2.51.
Then “GATGATTGTTCTCCCAGCTGATGAATTTGTGTAGTCGAGTAAACAAATTTTCCTAATCTTTCTGTTCAAGCGCCATCTAC”, with 6.14; and “GATGATTGTTCTCCCAGCTGATGAATTCAGTCTGTCGAGTAAACAAATTTTCCTAATCTTTCTGTTCAAGCGCCATCTAC”, with 0.407.
Turning to “GATGATTGTTCTCCCAGCTGATGAATTTATTGCCTCGAGTAAACAAATTTTCCTAATCTTTCTGTTCAAGCGCCATCTAC”, the binding signal (RPM ratio (pull-down/input)) came to 5.03.
“GATGATTGTTCTCCCAGCTGATGAATTACACCTTTCGAGTAAACAAATTTTCCTAATCTTTCTGTTCAAGCGCCATCTAC”: the binding signal (RPM ratio (pull-down/input)) was 0.64.
Then “GATGATTGTTCTCCCAGCTGATGAATTGTAGAGGTCGAGTAAACAAATTTTCCTAATCTTTCTGTTCAAGCGCCATCTAC”, with 0.339; and “GATGATTGTTCTCCCAGCTGATGAATTCCGGCGGTCGAGTAAACAAATTTTCCTAATCTTTCTGTTCAAGCGCCATCTAC”, with 0.238; and “GATGATTGTTCTCCCAGCTGATGAATTAGCCCCTTCGAGTAAACAAATTTTCCTAATCTTTCTGTTCAAGCGCCATCTAC”, with 0.349.
To “GATGATTGTTCTCCCAGCTGATGAATTATCAAGCTCGAGTAAACAAATTTTCCTAATCTTTCTGTTCAAGCGCCATCTAC” belongs 0.285; to “GATGATTGTTCTCCCAGCTGATGAATTCCTTAGGTCGAGTAAACAAATTTTCCTAATCTTTCTGTTCAAGCGCCATCTAC”, 0.214; to “GATGATTGTTCTCCCAGCTGATGAATTCATATCCTCGAGTAAACAAATTTTCCTAATCTTTCTGTTCAAGCGCCATCTAC”, 0.789.
In the case of “GATGATTGTTCTCCCAGCTGATGAATTGAGAGACTCGAGTAAACAAATTTTCCTAATCTTTCTGTTCAAGCGCCATCTAC”, the binding signal (RPM ratio (pull-down/input)) was found to be 0.476.
To “GATGATTGTTCTCCCAGCTGATGAATTCGGAAGGTCGAGTAAACAAATTTTCCTAATCTTTCTGTTCAAGCGCCATCTAC” belongs 0.208; to “GATGATTGTTCTCCCAGCTGATGAATTCAGAACATCGAGTAAACAAATTTTCCTAATCTTTCTGTTCAAGCGCCATCTAC”, 0.366.
Then “GATGATTGTTCTCCCAGCTGATGAATTCATATACTCGAGTAAACAAATTTTCCTAATCTTTCTGTTCAAGCGCCATCTAC”, with 1.47.
